We go through one molecule from patent publication US20200299675A1 (published 2020).

Among the targets are Strep-m16; Strep-m4; Strep-m12; Strep-m1.
What all share (assay): ELISA
In general terms: ELISA stands for enzyme-linked immunosorbent assay.

Sequence of Strep-m12 (P22629 other isoform, or with tags, fused parts or gaps): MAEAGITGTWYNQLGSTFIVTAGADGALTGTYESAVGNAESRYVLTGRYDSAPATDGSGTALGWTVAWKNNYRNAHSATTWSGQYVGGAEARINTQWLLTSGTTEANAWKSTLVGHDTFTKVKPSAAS
Sequence of Strep-m1 (P22629 other isoform, or with tags, fused parts or gaps): as above
Sequence of Strep-m16 (P22629 other isoform, or with tags, fused parts or gaps): as above
Sequence of Strep-m4 (P22629 other isoform, or with tags, fused parts or gaps): as above

B1: Streptavidin (other)
chain: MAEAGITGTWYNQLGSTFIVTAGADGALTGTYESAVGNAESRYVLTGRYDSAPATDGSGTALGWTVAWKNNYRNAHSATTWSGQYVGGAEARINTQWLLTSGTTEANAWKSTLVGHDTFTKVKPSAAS
For orientation: Kd means the constant that tells how readily two partners part at equilibrium. Higher therefore signals a looser complex. With B1, the Kd in the assay with Strep-m16 was above 2000 nM; with Strep-m4, 550 nM; with Strep-m12, 425 nM; in the assay with Strep-m1, 150 nM.
